Laboratory results published in the supplement of paper PMC12217912.
The other results are listed elsewhere or left out. The full chains were built here from the parent and the listed change. Inactive controls read about 0.05.

B1: TEV protease; numbered along this chain (parent)
chain: MGESLFKGPRDYNPISSSICHLTNESDGHTTSLYGIGFGPFIITNKHLFRRNNGTLVVQSLHGVFKVKDTTTLQQHLVDGRDMIIIRMPKDFPPFPQKLKFREPQREERICLVTTNFQTKSMSSMVSDTSCTFPSGDGIFWKHWIQTKDGQCGSPLVSTRDGFIVGIHSASNFTNTNNYFTSVPKNFMELLTNQEAQQWVSGWRLNADSVLWGGHKVFMVKPEEPFQPVKEATQL

Variants of: B1
Assay: raw area under fraction-flipped curve 0-4 h after induction (AUC4h, not background-subtracted), DNA-recorder readout of cleavage of the substrate (dimensionless); higher = more cleavage of the substrate by the protease variant
Conditions: temperature: 34 °C; time window: 0-4 h after rhamnose induction
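Note: Bxb1 expression induced with 0.2% (w/v) L-rhamnose at OD600 near 0.5, cultures sampled hourly, flipped fraction per protease–substrate barcode pair counted by paired-end Illumina sequencing.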

Variant	area with substrate EALYFQS	area with substrate ECLYFQS	area with substrate EDLYFQS	area with substrate EELYFQS	area with substrate EILYFQS	area with substrate EKLYFQS	area with substrate ELLYFQS	area with substrate EMLYFQS	area with substrate EPLYFQS	area with substrate EQLYFQS	area with substrate ERLYFQS	area with substrate ESLYFQS	area with substrate ETLYFQS	area with substrate EGLYFQS	area with substrate EHLYFQS	area with substrate EVLYFQS	area with substrate EWLYFQS	area with substrate EYLYFQS	area with substrate EFLYFQS
P222D	0.136	0.131	0.157	0.125	0.0974	0.112	0.0968	0.109	0.117	0.122	0.0968	0.105	0.108	–	–	–	–	–	–
P222F	0.0764	0.0939	0.121	–	0.0906	0.0881	0.076	0.0822	0.112	0.0854	0.0737	0.0795	–	0.0582	0.0991	0.0816	0.085	0.079	–
V220W	0.136	0.1	0.121	0.103	0.0922	0.0739	0.0626	0.0956	0.085	0.104	0.0802	0.1	0.109	0.0908	0.094	0.0448	0.0837	–	–
V220M	0.12	0.0918	0.162	–	0.113	0.0955	0.0938	0.111	0.11	0.0972	–	0.108	–	0.0672	–	0.104	0.0773	0.126	0.12
K230C	0.0951	0.0819	0.111	0.122	0.0937	0.104	–	0.128	–	0.114	0.104	0.116	0.112	–	0.1	–	–	–	–
K230N	0.0891	0.105	0.146	0.121	0.0858	0.102	–	–	–	0.141	0.102	0.111	0.0989	0.0872	0.0752	0.0909	0.089	0.127	0.0888
K230D	0.109	0.147	0.14	0.144	0.177	0.13	0.0869	0.0564	0.111	0.116	0.0893	0.114	–	–	0.108	0.125	0.0586	–	–
V229F	0.107	0.0944	0.103	0.121	0.109	0.107	–	–	–	–	0.0787	0.0995	0.0979	0.102	–	0.098	0.0898	–	–
V229C	0.113	0.106	0.132	0.0929	0.0986	0.123	–	0.155	0.141	0.105	–	0.12	–	0.0882	–	0.1	–	0.102	–
K221F	0.0965	0.0879	0.104	0.0958	0.0818	0.094	0.089	0.108	0.0935	0.0698	0.0786	0.0874	0.0565	0.0732	0.0624	0.077	0.0964	0.0862	–
Q227V	0.135	0.116	0.136	0.127	0.0684	–	–	–	0.0815	0.099	0.117	0.122	0.133	–	0.12	0.11	0.123	0.0743	–
Q227K	0.131	0.125	0.18	0.127	0.102	0.0492	0.0911	–	0.128	0.129	0.112	0.105	0.102	0.101	0.0957	0.0786	0.109	0.101	–
Q227L	0.114	0.0994	0.124	0.115	0.0877	0.101	0.0903	–	0.136	0.0698	0.106	0.104	0.0854	–	–	0.102	0.079	0.13	–
F226H	0.119	0.105	0.139	0.138	0.0976	0.0724	–	–	0.0999	0.113	–	0.1	0.128	–	0.132	0.0904	0.107	–	–
F226M	0.111	0.117	0.151	0.147	0.0998	0.117	0.101	–	0.132	0.114	0.0884	0.0936	0.143	–	0.115	0.0919	0.103	–	–
F226N	0.118	0.127	0.14	0.141	0.1	0.102	0.103	0.116	0.133	0.13	–	0.13	–	0.0896	–	0.0991	0.0962	0.0208	0.129
S209V	0.0988	0.103	0.147	–	0.122	–	–	0.0989	0.139	0.127	–	0.1	0.111	0.0983	0.0922	0.122	–	0.0933	–
E223I	0.0874	0.0822	0.111	0.0951	0.0692	0.0835	0.0853	–	–	0.0944	–	0.0777	0.0998	0.0712	–	0.09	0.0867	0.0858	0.079
E223K	0.126	0.0913	0.121	0.105	0.0993	0.108	0.0812	0.094	0.101	0.124	0.0886	0.0896	–	0.102	0.103	0.0839	0.094	0.103	–
H215C	0.0735	0.068	0.0893	0.0756	0.0667	–	–	–	–	0.0812	0.03	0.082	–	0.0703	–	–	–	–	–
L211Q	0.117	0.138	0.122	0.122	0.0897	0.101	–	–	–	0.138	–	0.104	–	0.0972	0.113	0.0956	0.0924	0.0984	–
M219S	0.094	0.0984	0.0992	0.117	0.0794	0.111	0.106	0.118	–	0.11	0.127	0.096	–	0.0739	0.0974	0.0916	0.0883	–	–
V217P	0.0577	0.0544	0.0496	–	0.0525	0.0633	0.0575	0.0648	0.0669	0.0542	–	0.0618	–	0.054	0.0695	0.0518	0.0664	0.0663	–
V217C	0.0926	0.108	0.0929	0.112	0.0988	0.0886	0.11	0.1	0.111	0.0978	0.0921	0.0908	–	0.117	0.0965	0.0909	0.0947	0.102	–
